Measured values as given in PubChem BioAssay AID1347073 (National Center for Advancing Translational Sciences (NCATS), 2019).
Screen size: about 45,000 compounds; about 200 (0.44%) were called active. Inconclusive results (about 7%) are left out. Calls come from the whole dose curve; as a rule, active = well fitted activation curve with a large enough effect; inconclusive = small, poorly fitted or top-dose-only effect; inactive = no such curve, though single readings can be large or run the other way. This is one part of the list.

Assay: qHTS of TDP-43 Inhibitors: NCGC Sytravon Library Screen; note: 0% is about no effect; nearly all actives have a fitted effect of over 55% in size
Conditions: yeast TDP-43 toxicity rescue, BacTiter-Glo growth, 24 h; series mostly up to 46.1 µM; growth rescue (activation): at the top concentration
Procedure, shortened: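 TDP-43-expressing yeast, pregrown in raffinose, seeded at OD600 0.02 in galactose medium with compound for 24 hr at 30 deg C. Growth read by BacTiter-Glo luminescence, so rescue of toxicity appears as activation.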

| SMILES | growth rescue (activation) |
| --- | --- |
| O=C(NNC(=O)c1ccccc1F)c1ccco1 | inactive: -13.8% |
| CCn1cnc2cc(NC(=O)COc3ccc(C)cc3)ccc21 | inactive: 0.401% |
| COCCCNC(=S)NCCNc1nc2cc(C)c(C)cc2cc1C#N | inactive: 14.1% |
| Clc1cccc(C2CCN(Cc3nc(CC4CC4)no3)C2)c1 (stereo unspecified) | inactive: 23.7% |
| Nc1cc2ccccc2oc1=O | inactive: 36.5% |
| COc1ccc(S(=O)(=O)/N=C2\C=C(NS(=O)(=O)c3ccccc3)C(=O)c3ccccc32)cc1 | inactive: 20.2% |
| COc1ccc(NS(=O)(=O)c2cc(NC(=O)c3cnc(C)cn3)ccc2N2CCCCC2)cc1 | inactive: 12.2% |
| O=[N+]([O-])c1ccc(C[n+]2ccc(Cc3ccccc3)cc2)cc1 | inactive: 7.94% |
| COc1ccccc1NC(=O)Cn1c2ccc(F)cc2c2nc3n(c(=O)c21)CCS3 | inactive: 12.9% |
| Cc1ccc(NC(=O)C2=NNC(=O)CC2)cc1S(=O)(=O)Nc1ccc(SC(F)F)cc1 | inactive: 10.6% |
| Cc1cc(N2C(=O)C(O)=C(C(=O)c3cc4ccccc4o3)C2c2cccs2)no1 (stereo unspecified) | inactive: -10.9% |
| COCC(C)n1c(C)cc(C(=O)CSc2nnc(N)s2)c1C (stereo unspecified) | inactive: 1.83% |
| CN1C(=O)c2oc3ccccc3c(=O)c2C1c1cccnc1 (stereo unspecified) | inactive: -66.7% |
| COc1cc(/C=N/NC(=O)CNc2n[nH]c(=O)[nH]c2=O)ccc1O | inactive: 6.29% |
| CN(C(=O)COC(=O)c1ccc(=O)n(Cc2ccccc2)n1)c1ccccc1 | inactive: 1.86% |
| CC(C)NC(=O)C1Cc2c(-c3ccc4c(c3)OCO4)ccnc2O1 (stereo unspecified) | inactive: 13.9% |
| Cc1noc(C)c1S(=O)(=O)N1CCCC1C(=O)O (stereo unspecified) | inactive: 2.91% |
| CC(C)Cn1c(SCC(=O)N2CCCc3ccccc32)nc2ccccc2c1=O | inactive: 5.82% |
| Cc1cccc(N(C)C(=O)CCS(=O)(=O)c2ccc3c(c2)n(C)c(=O)c(=O)n3C)c1 | inactive: 9.25% |
| Cc1nn(CC(=O)NCCCN2CCCC2=O)c(C)c1[N+](=O)[O-] | inactive: -49% |
| CNS(=O)(=O)c1cccc(C(=O)OCC(=O)c2cc(C)n(-c3ccc4c(c3)OCO4)c2C)c1 | inactive: -8.14% |
| Cc1ccc(-c2cnc(-c3ccccc3C(=O)O)o2)cc1 | inactive: -34.3% |
| COc1ccc(NC(=O)NC(C)c2c(-n3cccc3)sc(C)c2C)cc1OC (stereo unspecified) | inactive: 1.24% |
| CC(=O)c1ccccc1NC(=O)CSc1nc2ccccc2c(=O)n1CCCN1CCOCC1 | inactive: 7.9% |
| CCn1c(SCC(=O)Nc2cccc(O)c2)nc2c1c(=O)n(C)c(=O)n2C | inactive: -13.6% |
| CC(=O)Nc1cccc(NC(=S)Nc2ccc(F)c(Cl)c2)c1 | inactive: -3.34% |

| SMILES | growth rescue (activation) |
| --- | --- |
| Cc1ccc(NC(=O)Cc2cc(C(=O)O)c3ccccc3n2)c(C)c1 | inactive: -3.74% |
| CCOC(=O)C1CCCN(Cc2nc(CC3CC3)no2)C1 (stereo unspecified) | inactive: -0.587% |
| Cc1ccc(S(=O)(=O)NCCc2nc3ccccc3[nH]2)cc1 | inactive: -1.67% |
| Cc1ccc(/C(=N\S(=O)(=O)c2ccc(Br)cc2)Nc2ccccc2C)cc1 | inactive: 10.8% |
| CCOc1ccc(CCNC(=O)CN2C(=O)CCSc3ccccc32)cc1OCC | inactive: -18% |
| Cc1cc(C)n(C2CCCCC2OC(=O)CCc2ccccc2)n1 (stereo unspecified) | inactive: 21.6% |
| CC(C(=O)Nc1cccc([N+](=O)[O-])c1)N1C(=O)NC2(CCCC2)C1=O (stereo unspecified) | inactive: 16% |
| CN(C)CCNC(=O)c1ccccc1-c1cc2ccccc2c(=O)o1 | inactive: 3.79% |
| CCOC(=O)C1(CCOc2ccccc2)CCN(Cc2ccc3c(c2)OCCO3)CC1 | inactive: -15.4% |
| CC(=O)c1cccc(NC(=O)C2Cc3c(-c4cccc(C(N)=O)c4)ccnc3O2)c1 (stereo unspecified) | inactive: 5.95% |
| CC1=C(C(=O)OC(C)C)C(c2ccco2)NC(=O)N1 (stereo unspecified) | inactive: 10.6% |
| COC(=O)c1cc(CNC(=O)CCCSc2ccccc2)ccc1OC | inactive: -19.1% |
| CN(C)S(=O)(=O)c1cccc(NC(=O)COC(=O)[C@H](Cc2ccccc2)NC(=O)c2ccco2)c1 | inactive: 20.7% |
| COc1cccc(-c2cnc3c(NC=O)cc(-c4ccc(N5CCN(C)CC5)cc4)cn23)c1 | inactive: 17.2% |
| Cc1ccc(C(=O)N/C(=C\c2ccccc2)C(=O)NCc2ccncc2)cc1 | inactive: 33% |
| COc1ccc([N+](=O)[O-])cc1N(CC(O)CN1CCCC1)S(=O)(=O)c1ccc(C)cc1 (stereo unspecified) | inactive: -0.836% |
| Cc1cc(C)c(C)c(S(=O)(=O)N2CCC(C(=O)OCC(=O)NC3CCS(=O)(=O)C3)CC2)c1C (stereo unspecified) | inactive: 2.8% |
| Cc1cccc(OCC(=O)NCC(=O)N/N=C/c2cc(Br)ccc2OCc2ccccc2)c1 | inactive: 6.14% |
| Cc1ccc(-c2nnc(CCC(=O)N(C)Cc3nccs3)o2)s1 | inactive: 9.35% |
| CCN(CC)S(=O)(=O)c1ccc(/C=C/C(=O)OCC(=O)NC(=O)C2COc3ccccc3O2)cc1 (stereo unspecified) | inactive: 16.6% |
| O=C(Oc1ccc2c(c1)O/C(=C\c1ccncc1)C2=O)c1ccccc1 | inactive: -20.4% |
| Cc1ccc(SCC(=O)N(C)C2CCS(=O)(=O)C2)c(C)c1 (stereo unspecified) | inactive: -45.9% |
| O=C(c1ccco1)N1CCN(Cc2nnc(-c3cccc(Br)c3)o2)CC1 | inactive: 5.54% |
| Cc1ccc(S(=O)(=O)/N=C2\C=C(NS(=O)(=O)c3ccccc3)C(=O)c3ccccc32)cc1 | inactive: 19% |
| O=C(O)C(Oc1ccc2c(-c3ccccc3)cc(=O)oc2c1)c1ccccc1 (stereo unspecified) | inactive: 29.5% |
